Measured values reported in the supplement of paper PMC3334620.
In all, about 33,000 sequences were measured (“E-score (-0.5 to 0.5)”: median about -0.012, highest 2% from about 0.27 on). Some of the results follow.

biological target: T1, Vhr1 (UniProt P40522); experiment: PBM E-score (8-mer binding enrichment) (E-score (-0.5 to 0.5)); higher = stronger / more preferred TF binding; most listed sequences are background and not binding sites; conditions: protein concentration: 200 nM; construct: GST-full length
T1 sequence: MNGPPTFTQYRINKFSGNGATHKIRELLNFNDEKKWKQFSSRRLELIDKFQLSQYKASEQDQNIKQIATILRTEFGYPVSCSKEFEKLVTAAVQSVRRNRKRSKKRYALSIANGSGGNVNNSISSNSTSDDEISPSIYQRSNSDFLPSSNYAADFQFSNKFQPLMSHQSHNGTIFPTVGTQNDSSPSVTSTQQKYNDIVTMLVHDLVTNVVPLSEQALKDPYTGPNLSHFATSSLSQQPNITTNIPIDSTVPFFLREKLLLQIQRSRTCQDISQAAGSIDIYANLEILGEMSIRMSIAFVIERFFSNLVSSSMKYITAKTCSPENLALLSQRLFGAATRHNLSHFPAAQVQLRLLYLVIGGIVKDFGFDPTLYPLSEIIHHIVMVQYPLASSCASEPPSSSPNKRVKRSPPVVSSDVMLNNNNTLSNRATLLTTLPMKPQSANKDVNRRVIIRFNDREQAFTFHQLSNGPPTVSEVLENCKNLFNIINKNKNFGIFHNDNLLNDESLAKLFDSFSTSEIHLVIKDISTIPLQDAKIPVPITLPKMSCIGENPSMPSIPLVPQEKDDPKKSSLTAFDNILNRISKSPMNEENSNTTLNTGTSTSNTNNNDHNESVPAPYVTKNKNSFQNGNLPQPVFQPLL
In short: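 Universal all-10-mer Agilent arrays, double-stranded by primer extension on fresh or once-stripped slides, were probed with about 100-200 nM GST-tagged yeast transcription factors made by PURExpress. Fluorescent anti-GST detected bound protein, and masliner normalised the scans. E-scores from the Universal PBM Analysis Suite were given to each ungapped eight-base word pooled with its reverse complement.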

| Sequence | PBM E-score |
| --- | --- |
| AGGAACCG | -0.0195 |
| CACGCGAC | 0.0304 |
| CGCGCATA | 0.033 |
| GGTTACTA | 0.0689 |
| AACACATC | 0.159 |
| ATCCGACG | 0.00306 |
| AGAGCGCT | -0.249 |
| AACTGACG | -0.282 |
| CCGTTCGC | 0.0113 |
| AGTTGAAG | -0.164 |
| CCGCAGCC | 0.133 |
| CACATAAC | 0.142 |
| ACACCCTA | 0.138 |
| AAGCAACC | 0.0341 |
| GACATGCA | -0.0716 |
| ATGGGTCG | 0.217 |
| GTCGCATA | 0.0641 |
| CGACAGCA | 0.0483 |
| GCATGTGA | 0.0944 |
| AGATACAG | 0.0855 |
| GATCTCGA | 0.0431 |
| ACTGGCAG | 0.0407 |
| AGGCCTTC | -0.179 |
| CGACCTTC | -0.0354 |
| ACCTGAGT | 0.129 |

| Sequence | PBM E-score |
| --- | --- |
| CCTTTTGC | -0.0879 |
| ACTTTAAG | -0.0348 |
| ACGCCTGC | -0.166 |
| GCATCCGC | -0.0139 |
| AGGATCCC | -0.0452 |
| GCTCCTAA | -0.101 |
| ACACGCAG | 0.0348 |
| GGGATAAA | 0.014 |
| GGTCAAAC | -0.0444 |
| CCCTCGCA | -0.0314 |
| GCAACTGA | 0.147 |
| GCTCAGAA | -0.042 |
| GTCGGAAC | 0.0979 |
| CGGCGTAA | -0.00942 |
| CTCATACA | -0.0304 |
| AATTCCAA | -0.0421 |
| CTTCCAGA | -0.152 |
| AAACAGAA | -0.133 |
| CCTCACTA | -0.0453 |
| ATCGGCCC | 0.0461 |
| TATTAGGA | -0.0487 |
| ACTGGATC | 0.195 |
| ATACTGCA | 0.234 |
| CGCCACTC | 0.106 |
| CAGATCAG | -0.112 |

| Sequence | PBM E-score |
| --- | --- |
| CGACTATA | 0.112 |
| CTATCCAC | 0.0438 |
| AGCCCTAA | -0.136 |
| ACACACGA | 0.155 |
| AGAGAAAT | -0.243 |
| AAACGTGG | -0.113 |
| GAGGTGCA | -0.073 |
| AAAGCGCC | -0.148 |
| CGTTCCTA | -0.0348 |
| AAATGAAT | -0.0848 |
| AGATAATA | 0.00292 |
| ATTACTTC | -0.157 |
| CCTTTGGA | -0.153 |
| CACTCACC | 0.206 |
| AAGGCTCT | -0.215 |
| AGTCCCCC | -0.208 |
| AGAAGAAT | -0.176 |
| ATGTCCCC | -0.0931 |
| AGTCTCGG | -0.0846 |
| ATGGCATA | 0.079 |
| AGCCCATG | 0.203 |
| CTTATATC | 0.0719 |
| AGGATAGA | -0.194 |
| CCTAATCA | 0.203 |
| AGATCCCC | -0.0804 |

| Sequence | PBM E-score |
| --- | --- |
| CTCTTAAA | -0.236 |
| CAGGACGG | -0.052 |
| ATCTCAAT | 0.0525 |
| ACAGTGCT | 0.205 |
| ACGCTAAT | -0.0837 |
| TAACCTTA | -0.00794 |
| AATATACA | 0.197 |
| GGTGGTGA | 0.0672 |
| CGTGTTCA | 0.125 |
| ATTTAAAC | 0.114 |
| AGTCACTG | 0.384 |
| CTCCTTAA | -0.05 |
| GGCTGGAC | -0.215 |
| ACGAACTC | 0.193 |
| ATATGTCG | 0.0263 |
| CTCTTGCA | -0.12 |
| TAATGGCA | -0.00432 |
| ATCTCACC | 0.0965 |
| ACCTTGAC | 0.0362 |
| ACATCCTC | 0.0891 |
| ACCATGAT | 0.219 |
| CTAGTCAA | 0.124 |
| GGGTAGAC | 0.0469 |
| CGGCCAAG | -0.15 |
| TTGGCAAA | -0.00309 |

| Sequence | PBM E-score |
| --- | --- |
| GCTCAAGA | -0.16 |
| CTGTATTC | 0.0706 |
| GGTGTGTA | 0.109 |
| CCGAATCC | 0.0952 |
| CCGATGAG | -0.00284 |
| CCATTGCC | 0.0112 |
| CGCTCGCC | 0.0915 |
| AGTCTCCA | -0.0176 |
| CTCCGCGA | 0.157 |
| CACAACCA | 0.262 |
| TACATCAA | 0.0869 |
| AGATTTGG | -0.00959 |
| CCGACTCG | 0.238 |
| AAGCGGCG | 0.0196 |
| GAGTGGGC | -0.0581 |
| AATTCTGC | -0.00295 |
| GCCAGCGA | 0.109 |
| AGACCACT | -0.0144 |
| AATAAGTC | -0.0469 |
| AACGGTTA | -0.108 |
| AACTTATT | 0.145 |
| ACACTAGC | -0.0833 |
| AACAGAGA | 0.133 |
| ATGGGGCC | -0.237 |
| CTATGTTC | 0.0962 |

| Sequence | PBM E-score |
| --- | --- |
| AATAGTAT | 0.0714 |
| CAATGAAG | -0.136 |
| CCATCAAC | -0.0122 |
| CACTTCGC | -0.0734 |
| GCCTGTAC | -0.0433 |
| CCGGCTCG | 0.0952 |
| CGACGAGA | -0.0965 |
| GGGAACCC | 0.048 |
| CATGAAAA | -0.162 |
| AACTGTAG | 0.124 |
| AAGTATCC | -0.139 |
| CGGACACG | -0.0121 |
| AAATACAA | -0.0296 |
| CGGGGGTC | -0.258 |
| GTTGCCCA | 0.0694 |
| AGCTTGTG | 0.042 |
| GTGCTACA | -0.0774 |
| GGATCCCC | -0.137 |
| CATCTGCA | 0.175 |
| CTTGGCCC | -0.247 |
| ATACTCCC | 0.102 |
| AAGTAGTA | -0.0424 |
| CGCGAATC | 0.193 |
| ACCAAGAA | 0.0592 |
| TTCGAAAA | -0.0591 |

| Sequence | PBM E-score |
| --- | --- |
| TAGCAGAA | -0.0156 |
| ATTTAGCA | 0.0238 |
| AGGATGAG | 0.225 |
| ACGTGGAA | -0.114 |
| AGGGAGAC | 0.0505 |
| CCTCTGGC | -0.0458 |
| GCAGAGCC | -0.254 |
| CTATTGCC | -0.181 |
| AACACTGA | 0.124 |
| AACGGAAG | 0.00071 |
| CCGTTCAA | -0.0693 |
| GTAATCCA | 8e-05 |
| AGAATCAA | 0.0929 |
| CCGAAACC | -0.129 |
| ACTCCATG | 0.251 |
| CACGCTAG | -0.0447 |
| GGGCTAAC | -0.138 |
| AACTCATC | 0.209 |
| CGGCGTGC | -0.0246 |
| ATTAGTTA | 0.143 |
| CAGCCGAC | -0.0193 |
| TCCTTAGA | -0.227 |
